The results in this text go back to article PMC4336329 (PLoS ONE, 2015).

The campaign covered roughly 310,000 compounds. About 2,200 (0.71%) showed an effect of 50% or more. Effects have a minus sign here. The list shows a part of the results.

This test deals with human ether-à-go-go-related gene (hERG) potassium channel (human, UniProt Q12809). Briefly: primary screen, population patch clamp on CHO cells stably expressing hERG.
Sequence of human ether-à-go-go-related gene (hERG) potassium channel (Q12809 whole entry, looked up): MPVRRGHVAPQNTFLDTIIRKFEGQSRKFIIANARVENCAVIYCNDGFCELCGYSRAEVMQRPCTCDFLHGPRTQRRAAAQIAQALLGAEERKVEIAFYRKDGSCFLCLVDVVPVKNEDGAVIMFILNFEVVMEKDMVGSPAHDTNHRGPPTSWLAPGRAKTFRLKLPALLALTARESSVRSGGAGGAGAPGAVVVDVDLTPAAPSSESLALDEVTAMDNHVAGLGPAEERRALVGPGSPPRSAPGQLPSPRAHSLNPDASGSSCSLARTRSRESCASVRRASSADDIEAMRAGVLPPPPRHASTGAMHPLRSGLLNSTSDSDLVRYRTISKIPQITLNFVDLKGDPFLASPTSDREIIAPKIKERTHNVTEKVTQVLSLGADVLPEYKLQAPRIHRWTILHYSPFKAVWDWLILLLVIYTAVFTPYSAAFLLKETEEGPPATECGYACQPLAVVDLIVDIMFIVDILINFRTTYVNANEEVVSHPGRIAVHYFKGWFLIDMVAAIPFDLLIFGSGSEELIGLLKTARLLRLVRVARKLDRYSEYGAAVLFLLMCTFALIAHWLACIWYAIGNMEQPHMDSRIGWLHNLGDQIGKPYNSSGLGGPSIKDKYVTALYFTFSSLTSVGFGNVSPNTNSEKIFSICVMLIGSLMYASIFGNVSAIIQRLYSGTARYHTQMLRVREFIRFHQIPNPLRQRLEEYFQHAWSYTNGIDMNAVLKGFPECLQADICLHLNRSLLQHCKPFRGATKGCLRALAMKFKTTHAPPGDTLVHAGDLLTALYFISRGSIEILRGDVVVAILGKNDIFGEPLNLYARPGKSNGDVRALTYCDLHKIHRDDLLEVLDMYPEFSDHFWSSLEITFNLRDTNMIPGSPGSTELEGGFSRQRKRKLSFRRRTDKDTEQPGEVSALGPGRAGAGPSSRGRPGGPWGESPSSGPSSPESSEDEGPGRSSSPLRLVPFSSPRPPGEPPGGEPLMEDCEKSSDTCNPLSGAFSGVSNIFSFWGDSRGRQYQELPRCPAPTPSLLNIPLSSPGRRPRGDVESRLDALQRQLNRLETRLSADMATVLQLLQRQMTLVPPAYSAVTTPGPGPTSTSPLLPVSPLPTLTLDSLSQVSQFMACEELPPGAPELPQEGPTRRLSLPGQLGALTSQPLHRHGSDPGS
In the case of `Cc1ccc(OCC(=O)Nc2ccc(N3CCN(S(C)(=O)=O)CC3)cc2)c(C)c1`, the “hERG current change (%, negative = inhibition) at 1uM” value came out at 10.6%.
Regarding `O=C(O)C(=O)O.O=C(c1ccncc1)N1CCN(C2CCC(c3ccccc3)CC2)CC1` (stereo not drawn), the “hERG current change (%, negative = inhibition) at 1uM” value was -10.9%.
The value for `COc1ccc(CCNC(=O)C(C)SCc2ccccc2)cc1` (stereo not drawn) was 15.3%; that for `COc1ccc2nc(COC(=O)c3ccco3)c(C(C)=O)[n+]([O-])c2c1` was 9.31%.
For `CCOc1ccc(C(=O)OCC(=O)NCc2ccccc2)cc1OCC`, the “hERG current change (%, negative = inhibition) at 1uM” value is reported as -0.272%.
For `Cc1ccc(NC(=O)COC(=O)c2ccco2)cc1C`, the “hERG current change (%, negative = inhibition) at 1uM” value is on record as 5.2%.
With `CN(C)c1ncc(C2=C(Cl)C(=O)C(N3CCCC3)=C(Cl)C2=O)s1`, the “hERG current change (%, negative = inhibition) at 1uM” value came out at 0.221%.
Turning to `O=C(Nc1cccc(F)c1)C1CCN(C(=O)c2ccco2)CC1`, the “hERG current change (%, negative = inhibition) at 1uM” value is on record as -3.66%.
For `C=CCn1c(CSc2nnc(-c3ccccc3)n2C)n[nH]c1=S`, the “hERG current change (%, negative = inhibition) at 1uM” value was 12.4%.
As for `CCOc1ccccc1NC(=O)C1COc2ccccc2O1` (stereo not drawn), the “hERG current change (%, negative = inhibition) at 1uM” value worked out at 13.8%.
As to `Cc1cc2n(n1)C(c1sccc1C)Nc1ccccc1-2` (stereo not drawn), the “hERG current change (%, negative = inhibition) at 1uM” value is reported as -11.3%.
Regarding `CC1CN(C(=O)N(C)C)CCN1C(=O)N(C)C` (stereo not drawn), the “hERG current change (%, negative = inhibition) at 1uM” value was determined as 14.7%.
For the compound `N#C/C(=C/c1ccc(CNC(=O)C(=O)Nc2cc(Cl)cc(Cl)c2)o1)C(=O)NCc1cccnc1`, the “hERG current change (%, negative = inhibition) at 1uM” value was 6.53%.
As to `COc1ccc(C)cc1-n1nnnc1SCC(=O)c1cc(C)n(Cc2ccco2)c1C`, the “hERG current change (%, negative = inhibition) at 1uM” value was -0.381%.
Consider `Fc1ccc(C2N3CCCN23)cc1` (stereo not drawn), for which the “hERG current change (%, negative = inhibition) at 1uM” value worked out at 11.3%.
For `COc1ccccc1N1CCN(CCN2C(=O)C3CCCN3C2=O)CC1` (stereo not drawn) the value was 19.2%; for `C=CCN1C(=O)C(O)(CC(=O)c2c(C)n[nH]c2C)c2cc(Br)ccc21` (stereo not drawn), 15.2%; for `O=C(NC(Cc1ccccc1)C(=O)O)/C(=C/c1ccc([N+](=O)[O-])cc1)NC(=O)c1ccccc1Br` (stereo not drawn), -1.9%.
For `CCCCC(=O)Nc1ccc(NC(=O)c2ccc(C)c([N+](=O)[O-])c2)cc1OC` the value was 12.8%.
As to `O=C(CCc1ccccc1)Nc1nncs1`, the “hERG current change (%, negative = inhibition) at 1uM” value came out at 11.8%.
The value for `O=C(N/N=C/c1ccncc1)/C(=C/c1ccccc1)NC(=O)c1ccccc1` was 12.6%; that for `Cc1cc(Br)ccc1NC(=O)C1CCN(C(=O)c2ccco2)CC1` was 11.1%.
In the case of `COc1cc(C(=O)Nc2cc(C)cc(C)c2)c(-n2cnnn2)cc1OC`, the “hERG current change (%, negative = inhibition) at 1uM” value was 10%.
For `CCOC(=O)Cn1nnc2c(sc3nc4c(c(-c5ccc(Cl)cc5)c32)CCC4)c1=O`, the “hERG current change (%, negative = inhibition) at 1uM” value is given as 9.51%.
For `Cc1noc(C)c1COC(=O)c1cc(F)c(F)cc1Cl`, the “hERG current change (%, negative = inhibition) at 1uM” value is on record as 12.3%.
The value for `Cc1[nH]c(=O)[nH]c(=O)c1/C=N/NC(=O)[C@H](C)NC(=O)OC(C)(C)C` was -1.09%; that for `Cc1ccc(C2=NN(CC(=O)O)C(=O)CC2)cc1` was -9.99%; that for `CCN1C(=O)N(S(=O)(=O)C(F)(F)F)[C@@H](c2ccccc2)C(C(=O)OC)=C1C` was 11.8%.
For the compound `O=C(NCCOC(=O)c1ccc(C(=O)OCCNC(=O)c2ccccc2)o1)c1ccccc1`, the “hERG current change (%, negative = inhibition) at 1uM” value is on record as 12.1%.
In the case of `O=C(Cn1cc2c(n1)CCCC2)NCc1ccccn1`, the “hERG current change (%, negative = inhibition) at 1uM” value was determined as 12%.
For `CC1CCc2sc3c(c2C1)c1ncnn1c(=O)n3CC(=O)c1ccc(Br)cc1` (stereo not drawn) the value was 15.7%; for `Cc1cc(C(=O)Nc2ccc(Cl)cc2)n(-c2ccccc2)n1`, 14.6%; for `C=CCn1c(SCc2cc([N+](=O)[O-])cc3c2OCOC3)nc2cc(C(=O)O)ccc2c1=O`, 4.67%.
Consider `Cc1nc(N2CCCCC2)c2ccsc2n1.O=C(O)C(=O)O`, for which the “hERG current change (%, negative = inhibition) at 1uM” value stood at 1.34%.
Take `CC(NC(=O)CCN1N=C(c2ccccc2)CCC1=O)c1ccc2c(c1)OCCO2` (stereo not drawn): the “hERG current change (%, negative = inhibition) at 1uM” value is on record as 12.4%.
Take `CCN1C[C@@]2(COC)C3[C@@H](OC)[C@H]4[C@@H]1[C@@]3(C1C[C@H]3[C@H](OC(=O)c5ccccc5)C1[C@]4(OC(C)=O)C[C@H]3OC)[C@@H](OC)C[C@H]2O` (stereo partly drawn): the “hERG current change (%, negative = inhibition) at 1uM” value worked out at 3.36%.
In the case of `COc1ccc(N(CC(=O)NCc2ccco2)S(=O)(=O)c2ccc(OC)c(OC)c2)cc1`, the “hERG current change (%, negative = inhibition) at 1uM” value was determined as 2.83%.
The value for `Cc1cc(C)nc(N2CCC(C(=O)Nc3cccc(C(F)(F)F)c3)CC2)n1` was -9.81%; that for `Cl.ClC(CCN1CCN(Cc2ccccc2)CC1)c1ccccc1` (stereo not drawn) was 2.91%.
As to `Cc1ccc(NC(=O)CN(C)C(=O)COC(=O)/C=C/c2cccs2)cc1`, the “hERG current change (%, negative = inhibition) at 1uM” value is 12.2%.
The value for `Cc1cc(F)ccc1S(=O)(=O)NCC(c1ccc2c(c1)OCO2)N1CCOCC1` (stereo not drawn) was 3.18%.
In the case of `CCCCC(=O)N1CCN(c2nc3ccc(Cl)cc3s2)CC1`, the “hERG current change (%, negative = inhibition) at 1uM” value was -19.3%.
Regarding `CSCCC(NC(=O)COc1ccccc1)C(=O)NCCOc1ccccc1` (stereo not drawn), the “hERG current change (%, negative = inhibition) at 1uM” value is 13.8%.
For `C=CCOc1cccc(C2C(C(=O)c3ccco3)=C(O)C(=O)N2CCN2CCOCC2)c1` (stereo not drawn) the value was 11.9%.
Consider `Cc1ccc(O)c(NC(=S)NC(=O)/C=C/c2ccccc2)c1`, for which the “hERG current change (%, negative = inhibition) at 1uM” value stood at 17%.
As for `COc1cc(/C=N/NC(=S)NCC2CCCO2)cc(OC)c1OC` (stereo not drawn), the “hERG current change (%, negative = inhibition) at 1uM” value was determined as 0.431%.
For `CCN(C(=O)CN1CCN(C)CC1)c1cccc2ccccc12.O=C(O)C(=O)O`, the “hERG current change (%, negative = inhibition) at 1uM” value came out at 7.18%.
In the case of `CC1(C)Cc2noc(N)c2C(C)(C)N1OC(=O)c1ccccc1`, the “hERG current change (%, negative = inhibition) at 1uM” value turned out to be 5.24%.
`Oc1ccc(/C=N/Nc2nc(-c3ccc(Cl)cc3)cc(C(F)(F)F)n2)cc1`: the “hERG current change (%, negative = inhibition) at 1uM” value was 2.87%.
Consider `Cc1ccc(OCC(=O)Nc2cccc(S(=O)(=O)N3CCCCCC3)c2)c([N+](=O)[O-])n1`, for which the “hERG current change (%, negative = inhibition) at 1uM” value is given as -5.98%.
As to `O/N=C1/CCSc2ccccc21`, the “hERG current change (%, negative = inhibition) at 1uM” value is on record as 8.39%.
Take `CC1(C)CC(=O)c2sc(NC(=O)CN3C(=O)CCC3=O)nc2C1`: the “hERG current change (%, negative = inhibition) at 1uM” value came out at 9.18%.
As to `COc1cccc(NC(=O)Nc2ccc3c(c2)OCO3)c1`, the “hERG current change (%, negative = inhibition) at 1uM” value was found to be 16.8%.
Take `Cc1ccccc1CC1(CO)CCCN(C(=O)CCCN2CCCCC2=O)C1` (stereo not drawn): the “hERG current change (%, negative = inhibition) at 1uM” value was 7.31%.
The value for `Clc1ccc2c(c1)[C@H]1OCC[C@H]1[C@@H](c1ccco1)N2` was 3.66%; that for `COc1ccc(S(=O)(=O)N2CCC(n3cnc4cc(C(F)(F)F)ccc43)CC2)cc1` was -48.1%; that for `COC(=O)CCCn1c(C)cc(C(=O)CCl)c1C` was 5.38%.
Consider `Cc1nccn1CC(=O)N/N=C/c1c[nH]c2ccccc12`, for which the “hERG current change (%, negative = inhibition) at 1uM” value is on record as 9.58%.
As to `CC(=O)c1ccc(N2CCN(CC(O)COCc3ccco3)CC2)cc1` (stereo not drawn), the “hERG current change (%, negative = inhibition) at 1uM” value is reported as -29.3%.
On to `O=C(CC1Oc2ccccc2NC1=O)NCCCN1CCN(Cc2ccccc2)CC1` (stereo not drawn), for which the “hERG current change (%, negative = inhibition) at 1uM” value is 0.886%.
Take `Cc1cc(Nc2ccc(O)cc2)n2c(nc3ccccc32)c1C#N`: the “hERG current change (%, negative = inhibition) at 1uM” value worked out at 9.2%.
The value for `CCNC(=O)COc1ccc2ccccc2c1` was 12.9%.
For `CCOC(=O)Cc1c(C)nc(N)[nH]c1=O` the value was 12.1%; for `CCC(NC(=O)c1ccccc1Br)c1ccccc1` (stereo not drawn), 9.2%.
Regarding `O=C(NCCN1CCOCC1)c1ccc(Cl)cc1`, the “hERG current change (%, negative = inhibition) at 1uM” value worked out at 15%.
Regarding `CC1=C(C)CC2(SC1)C(=O)N(c1ccccc1)N=C2N` (stereo not drawn), the “hERG current change (%, negative = inhibition) at 1uM” value is listed as -5.83%.
Regarding `CN(CCC1CCCCO1)C(=O)CCc1nnc(Cc2c[nH]c3ccccc23)o1` (stereo not drawn), the “hERG current change (%, negative = inhibition) at 1uM” value was determined as 5.84%.
The value for `OCCC1CN(Cc2ccc(F)cc2)CCN1CCc1ccccc1` (stereo not drawn) was -48%; that for `CC(C)(C)NC(=O)C1CCCN(S(=O)(=O)c2cccc3cccnc23)C1` (stereo not drawn) was 9.22%.
Take `Cc1oc(C(N)=O)cc1COc1ccc(C(N)=O)cc1`: the “hERG current change (%, negative = inhibition) at 1uM” value was found to be 11.9%.
Consider `C=CC(COCc1ccccc1)N(Cc1ccccc1)S(=O)(=O)c1ccccc1Br` (stereo not drawn), for which the “hERG current change (%, negative = inhibition) at 1uM” value is 10.1%.
For the compound `CN1CCC(=NNC(=O)C(=O)Nc2ccccc2)CC1`, the “hERG current change (%, negative = inhibition) at 1uM” value is on record as 5.74%.
The value for `COc1ccccc1N(CC(O)CN1CCCC1)S(=O)(=O)c1ccccc1` (stereo not drawn) was 1.5%; that for `COc1cc(C(=O)NCc2cccc(Cl)c2)ccc1OCC(=O)N1CCOCC1` was -0.185%.
For `COCCSc1nc(N)c(NC(=O)c2ccc(OC)cc2)c(=O)[nH]1`, the “hERG current change (%, negative = inhibition) at 1uM” value is 17.3%.
The value for `CCOC(=O)CC1C(=O)NCCN1c1nc2ccc(C)cn2c(=O)c1/C=C1\SC(=S)N(C(C)CC)C1=O` (stereo not drawn) was 11.1%.
With `O=S(=O)(NC1CCN(Cc2ccccc2)CC1)c1ccc(Cl)cc1`, the “hERG current change (%, negative = inhibition) at 1uM” value came out at 9.8%.
As to `CCN(CC)P(=O)(Nc1cccc(C(F)(F)F)c1)c1ccc(N(C)C)cc1NC(=O)c1ccco1` (stereo not drawn), the “hERG current change (%, negative = inhibition) at 1uM” value is reported as 12.1%.
As for `COc1cc(/C=C/C(=O)OCC(=O)NCc2ccco2)cc(OC)c1OC`, the “hERG current change (%, negative = inhibition) at 1uM” value came out at 7.23%.
In the case of `CCCC1(c2ccccc2)NC(=O)N(CC(=O)c2[nH]c(C)c(C(=O)OCC)c2C)C1=O` (stereo not drawn), the “hERG current change (%, negative = inhibition) at 1uM” value is given as 7.22%.
On to `CCC(C(=O)NCc1ccco1)n1nc(C)c2c(C)n(-c3ccccc3)nc2c1=O` (stereo not drawn), for which the “hERG current change (%, negative = inhibition) at 1uM” value was 7.02%.
The value for `COc1cccc(/C=C/C(=O)Nc2ccc(N3CCOCC3)cc2)c1OC` was 0.898%.
As to `Cn1c(S(=O)(=O)c2ccc([N+](=O)[O-])cc2)nc(Br)c1Br`, the “hERG current change (%, negative = inhibition) at 1uM” value is 16.1%.
Consider `COc1cc(-c2nnc(CSc3nnc(Nc4ccc(C(C)C)cc4)s3)o2)cc(OC)c1OC`, for which the “hERG current change (%, negative = inhibition) at 1uM” value stood at 8.97%.
For `Cc1ccc(NC(=O)CN2CCOCC2)cc1Cl` the value was 10.3%.
`CN(Cc1cn(C)nc1-c1ccc(Oc2ccccc2)cc1)CC1COCCO1` (stereo not drawn): the “hERG current change (%, negative = inhibition) at 1uM” value is -3.26%.
On to `CC(=O)c1cccc(CN2CCCC(C(=O)Nc3cccc(-n4cccn4)c3)C2)c1` (stereo not drawn), for which the “hERG current change (%, negative = inhibition) at 1uM” value is on record as 9.28%.
